From patent US20130184251A1, “HETEROAROMATIC AND AROMATIC PIPERAZINYL AZETIDINYL AMIDES AS MONOACYLGLYCEROL LIPASE INHIBITORS” (Janssen Pharmaceutica, NV, priority 2009, published 2013)

Tests used:
[1] = biological target: T1, purified mutant MGL (mut-MGLL 11-313 L179S L186S) (Homo sapiens, UniProt Q99685, L169S/L176S); conditions: read-out: Ex. 3 (mutant) IC50
T1 sequence (Q99685 1-303 L169S/L176S): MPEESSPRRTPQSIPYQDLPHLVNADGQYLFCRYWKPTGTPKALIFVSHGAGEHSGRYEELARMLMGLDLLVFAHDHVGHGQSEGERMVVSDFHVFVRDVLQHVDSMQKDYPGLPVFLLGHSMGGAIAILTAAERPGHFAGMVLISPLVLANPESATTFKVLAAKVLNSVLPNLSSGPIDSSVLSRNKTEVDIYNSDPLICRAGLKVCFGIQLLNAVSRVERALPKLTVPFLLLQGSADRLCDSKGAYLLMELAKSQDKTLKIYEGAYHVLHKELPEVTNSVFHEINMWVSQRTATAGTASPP

[2] = biological target: T1, purified mutant MGL (mut-MGLL 11-313 L179S L186S); conditions: read-out: Ex. 4 Kd; ThermoFluor, mutant MGL

IC50 ([1]; mutant MGL, substrate 4MU-B) | Kd [2] | IC50 ([1]; mutant MGL (mut-MGLL 11-313 L179S L186S)) | SMILES
> 15.3 µM | 31.2 µM |  | O=C(Nc1cccc(C(=O)N2CC(N3CCN(c4ccccn4)CC3)C2)c1)C1CCCCC1 [Compound #203]
> 15.3 µM | > 76.7 µM |  | O=C([C@@H]1CCCc2ccccc21)N1CC(N2CCN(c3ccccn3)CC2)C1 [Compound #218]
> 15.3 µM | 16.7 µM |  | O=C(CCc1ccccc1)N1CC(N2CCN(c3ccccn3)CC2)C1 [Compound #208]
> 15.3 µM | 12.5 µM |  | O=C(C=Cc1ccccc1)N1CC(N2CCN(c3ccccn3)CC2)C1 [Compound #207]
> 15.3 µM | > 76.7 µM |  | O=C(c1ccccc1Cc1ccccc1)N1CC(N2CCN(c3ccccn3)CC2)C1 [Compound #217]
> 15.3 µM | > 76.7 µM |  | O=C(CC(c1ccccc1)c1ccccc1)N1CC(N2CCN(c3ccccn3)CC2)C1 [Compound #222]
 | 1.54 µM | 3.99 µM | c1ccc(N2CCCN(C3CN(c4ccc(N5CCCC5)cc4)C3)CC2)nc1 [compound 87, 1-Pyridin-2-yl-4-[1-(4-pyrrolidin-1-yl-phenyl)-azetidin-3-yl]-[1,4]diazepane]

Like-named read-outs stand apart in the source and are kept apart here.
